# Results: PubChem BioAssay AID504832 (National Center for Advancing Translational Sciences (NCATS), 2011)
# The whole screen tested about 310,000 compounds, of which about 18,000 (5.8%) were called active. Inconclusive results, whose numbers are uncertain, are shown with a selection of clear calls. Calls follow the shape of the dose curve; as a rule, active = well fitted inhibition curve with a large enough effect; inconclusive = small, poorly fitted or top-dose-only effect, or another doubt; inactive = no such curve, though single readings can be large or run the other way. Potencies of inconclusive entries are left out as doubtful fits.
# Assay: Primary qHTS for delayed death inhibitors of the malarial parasite plastid, 48 hour incubation
# Conditions: P. falciparum luciferase growth in erythrocytes; series mostly up to 28.7 µM
# Outline: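 Compounds are pin-transferred into medium, infected erythrocytes (2% hematocrit, 0.1% parasitemia final) are added, and plates sit one parasite generation at 37 C in 5% CO2. Detection reagent is then added and luminescence measured.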
# Potency is read from the fitted curve at half-maximal effect; tags tell the direction and shape of the fitted curve.
row,Structure (SMILES),Potency
1,CCS(=O)(=O)N1Cc2ccccc2CC1C(=O)Nc1cccc(S(=O)(=O)N(C)C)c1 (stereo not drawn),"inconclusive [inhibitor, partial curve, poor fit]"
2,CC(=O)Nc1ccc(OC(=O)c2ccco2)cc1,inactive
3,COc1ccc(-n2c(=S)[nH]c3cc(C(=O)Nc4ccccc4OC)ccc3c2=O)c(OC)c1,"inconclusive [inhibitor, partial curve, poor fit]"
4,COc1ccc(OC)c(S(=O)(=O)Nc2c(C)nn(C)c2C)c1,"inconclusive [inhibitor, single point]"
5,Cc1ccc([N+](=O)[O-])cc1S(=O)(=O)Nc1ccc(C(=O)N2CCN(C(=O)c3ccco3)CC2)cc1,"inconclusive [inhibitor, partial curve, poor fit]"
6,O=C(CNC(=O)c1ccc(Br)o1)OCC(=O)c1cccc([N+](=O)[O-])c1,inactive
7,CCN(CC)CCNC(=S)Nc1ccc(Cl)cc1,inactive
8,O=C(CC1C(=O)NCCN1CC(c1ccccc1)c1ccccc1)NC1CC1 (stereo not drawn),"inconclusive [inhibitor, partial curve, poor fit]"
9,COC(=O)c1[nH]c2cc(OC)c(OC)cc2c1/C=N/Nc1ccccc1,inactive
10,O=c1c(/C=N/Nc2ccccc2)c(Sc2nnnn2-c2ccccc2)nc2ccccn12,inactive
11,CCOC(=O)N1CCN(C(=O)/C(=C/c2cccs2)NC(=O)c2ccc(OC)c(OC)c2)CC1,"inconclusive [inhibitor, partial curve]"
12,O=C(NCCCN1CCOCC1)c1cnn2c(-c3ccccc3)cc(-c3ccccc3)nc12,"inconclusive [inhibitor, partial curve]"
13,COC(=O)c1[nH]c2ccccc2c1NC(=O)C(C)N1CC(C)OC(C)C1 (stereo not drawn),inactive
14,COc1cc2cc(CN(CCO)S(=O)(=O)c3ccccc3Cl)c(=O)[nH]c2cc1OC,"inconclusive [inhibitor, partial curve, poor fit]"
15,S=C(NC1CCCC1)N1CCN(c2ccccn2)CC1,inactive
16,Cc1nn(-c2ccccc2)c(N2CCCC2)c1/C=N/Nc1ccc(S(=O)(=O)Nc2ccccc2)cc1[N+](=O)[O-],active: 3.29 µM
17,N=C1C(c2nc(-c3ccc(F)cc3)cs2)=C(O)CN1CCCN1CCOCC1,"inconclusive [inhibitor, partial curve, poor fit]"
18,CCN1CCN(CCCN(Cc2ccco2)C(=S)Nc2ccc(Cl)c(C)c2)CC1,"inconclusive [inhibitor, single point]"
19,CC1(C)CC(=O)C2=C(C1)NC(Nc1nc3ccccc3o1)=NC21CCCCC1,"inconclusive [inhibitor, single point]"
20,O=C1C(=O)c2ccccc2C(O)=C1c1cccc([N+](=O)[O-])c1,"inconclusive [inhibitor, partial curve, poor fit]"
21,Cc1onc(-c2ccccc2Cl)c1C(=O)NC(=S)Nc1ccc(C(C)(C)C)cc1,"inconclusive [inhibitor, single point]"
22,COc1cccc(N2CC(C(=O)Nc3nnc(SCC(=O)NCC4CCCO4)s3)CC2=O)c1 (stereo not drawn),inactive

row,Structure (SMILES),Potency
1,O=C(CCc1nc(-c2ccccc2F)no1)NC1CCN(Cc2ccccc2)CC1,"inconclusive [inhibitor, partial curve]"
2,N#C/C(=N\Nc1ccccc1)C(=N)N1CCOCC1,inactive
3,Cc1cccc(-n2ncc3c(Nc4ccc(F)cc4)ncnc32)c1,"inconclusive [inhibitor, single point]"
4,Cc1ccc(NC(=O)CCN2CCN(C/C=C/c3ccccc3)CC2)cc1C,active: 6.57 µM
5,CCn1c(COc2ccccc2)nnc1SCC(=O)CC(=O)Nc1ccccc1OC,active: 13.1 µM
6,CC(C)c1ccc(/C=C/C(=O)n2nnc3ccccc32)cc1,inactive
7,COc1n[nH]c(C(=O)Nc2cc(Cl)ccc2Cl)c1[N+](=O)[O-],"inconclusive [inhibitor, single point]"
8,COC(=O)CCn1nnc(-c2ccc(C(C)C)cc2)n1,"inconclusive [inhibitor, partial curve, poor fit]"
9,CCOc1cc(N2CCOCC2)c(OCC)cc1NC(=O)CN1C(=O)N(C)C2(CCCCC2)C1=O,inactive
10,CC(C)(C)c1ccc(C2CC2C(=O)N/N=C\c2cc3ccccc3nc2Cl)cc1 (stereo not drawn),"inconclusive [inhibitor, partial curve, poor fit]"
11,N#CCC(=O)Nc1ccc(C(=O)OCc2ccccc2Oc2ccccc2)cc1,active: 10.4 µM
12,O=C(NCC(c1ccco1)N1CCCCC1)c1ccc(OCc2ccccc2)cc1 (stereo not drawn),"inconclusive [inhibitor, partial curve, poor fit]"
13,CCOC(=O)N1CCC(N2CCCC(CO)(Cc3cccc(OC)c3)C2)CC1 (stereo not drawn),"inconclusive [inhibitor, partial curve]"
14,COc1ccc(N2CCC(CNC(=S)Nc3c(C)cccc3C)C2)cc1 (stereo not drawn),active: 11.7 µM
15,Cc1nn(Cc2ccccc2Cl)c(C)c1C(=O)NC1CCCc2ccccc21 (stereo not drawn),"inconclusive [inhibitor, single point]"
16,CC(=O)Nc1ccc(S(=O)(=O)N2CCn3cccc3C2C)cc1 (stereo not drawn),"inconclusive [inhibitor, partial curve, poor fit]"
17,COc1ccc(N2CCN(C3CCN(S(=O)(=O)c4ccc(F)cc4)CC3)CC2)cc1,inactive
18,COc1ccc(-c2csc(NC(=O)C3=NN(c4ccccc4)C(=O)CC3)n2)cc1,"inconclusive [inhibitor, single point]"
19,CC(Sc1nc(C2CC2)n(-c2ccccc2)n1)C(=O)c1c(N)n(C)c(=O)n(C)c1=O (stereo not drawn),"inconclusive [inhibitor, single point]"
20,CCCC1CCC(=NNC(=S)NCCc2ccccc2)CC1 (stereo not drawn),"inconclusive [inhibitor, single point]"
21,CSc1ccc(C(=O)NC2CCSc3ccccc32)cc1 (stereo not drawn),inactive
